Experimental data: the supplement of paper PMC3334620
Over roughly 33,000 sequences, “E-score (-0.5 to 0.5)” has its median near -0.021; the highest 2% begin near 0.32. This is one part of the list.

The sequences below were run against T1, Zap1 (UniProt P47043) (assay: PBM E-score (8-mer binding enrichment) (E-score (-0.5 to 0.5)); higher = stronger / more preferred TF binding; most listed sequences are background and not binding sites). Conditions: protein concentration: 200 nM; construct: GST-full length.
T1 sequence: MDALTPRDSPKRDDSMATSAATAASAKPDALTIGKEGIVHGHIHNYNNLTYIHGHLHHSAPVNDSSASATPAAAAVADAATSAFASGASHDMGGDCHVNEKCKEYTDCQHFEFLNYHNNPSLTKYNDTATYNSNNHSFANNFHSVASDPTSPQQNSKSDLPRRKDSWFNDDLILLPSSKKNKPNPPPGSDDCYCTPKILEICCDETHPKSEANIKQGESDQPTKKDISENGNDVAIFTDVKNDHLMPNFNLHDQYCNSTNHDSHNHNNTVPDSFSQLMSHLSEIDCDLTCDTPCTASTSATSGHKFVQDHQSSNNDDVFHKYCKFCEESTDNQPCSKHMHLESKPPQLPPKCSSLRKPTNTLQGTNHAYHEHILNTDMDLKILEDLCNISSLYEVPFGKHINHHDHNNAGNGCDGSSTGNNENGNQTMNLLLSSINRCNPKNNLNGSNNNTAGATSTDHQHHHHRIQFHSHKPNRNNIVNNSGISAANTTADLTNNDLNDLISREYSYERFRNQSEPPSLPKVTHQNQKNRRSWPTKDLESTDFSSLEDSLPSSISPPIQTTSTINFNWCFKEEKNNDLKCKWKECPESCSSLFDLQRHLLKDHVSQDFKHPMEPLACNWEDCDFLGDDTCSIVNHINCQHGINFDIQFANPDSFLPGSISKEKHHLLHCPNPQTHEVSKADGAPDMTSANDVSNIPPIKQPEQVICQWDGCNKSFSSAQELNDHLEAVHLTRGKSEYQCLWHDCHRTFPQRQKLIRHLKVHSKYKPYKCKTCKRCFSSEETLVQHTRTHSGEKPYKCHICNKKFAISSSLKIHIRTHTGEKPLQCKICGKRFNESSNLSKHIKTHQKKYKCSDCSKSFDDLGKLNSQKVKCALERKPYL
How it was run: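 Full-length yeast transcription factors or their DNA-binding domains, GST-tagged and expressed with PURExpress, were applied at about 100-200 nM to universal all-10-mer Agilent arrays. These arrays had been made double-stranded by primer extension on fresh or once-stripped slides. Detection used fluorescent anti-GST, normalisation used masliner, and E-scores for ungapped eight-base words pooled with reverse complements came from the Universal PBM Analysis Suite.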

| Sequence | PBM E-score |
| --- | --- |
| CCGCCAGC | -0.217 |
| GGAAGAGA | -0.226 |
| GAACGTCA | -0.311 |
| CGGTATTA | 0.0852 |
| ACGGTCCA | 0.0301 |
| CCCCGCTC | -0.186 |
| CGATCAAC | -0.146 |
| GCTATATA | 0.128 |
| TACACTAA | 0.159 |
| ACCGCCCC | 0.0984 |
| ACATCACG | -0.0175 |
| ATGAGATG | -0.198 |
| AGCTTAAG | -0.0625 |
| CTTTGCTC | -0.13 |
| ATGGCCTG | -0.00074 |
| AAAGAGCC | -0.272 |
| TAGCTGAA | -0.0861 |
| GTCTGCAC | -0.125 |
| CGCTTCCG | -0.144 |
| AACTAGGC | 0.006 |
| AGCAAGAA | -0.0654 |
| AGTTCCCG | -0.014 |
| CAGTCCTA | -0.146 |
| GAGCCAAC | -0.0386 |
| GAGTTGAC | -0.155 |

| Sequence | PBM E-score |
| --- | --- |
| CAGCGATG | -0.113 |
| ACCGGACT | -0.111 |
| CATCAGAA | 0.0406 |
| GAAACCCC | 0.18 |
| AGGGCTGC | -0.0468 |
| GTGTGTCA | 0.0959 |
| ATTTCGGA | 0.116 |
| GGGTTTGA | 0.161 |
| GGACACGA | 0.043 |
| GTTTATCA | 0.209 |
| ACGAGTTG | 0.0856 |
| ACGCGTTA | 0.0976 |
| GGAATGCA | 0.0522 |
| AGAGACTG | -0.24 |
| AGTTAGAT | 0.0546 |
| ATCACCGC | 0.0296 |
| ACTCGCCA | -0.0338 |
| ACCGAGCA | 0.0749 |
| AACCTCGG | 0.302 |
| GGTTAGAC | 0.287 |
| CTTAGAAA | 0.125 |
| CTGGATAC | -0.0732 |
| CTGCTCGC | -0.0558 |
| CTCGCCTC | -0.356 |
| CGCGCGGA | 0.0498 |

| Sequence | PBM E-score |
| --- | --- |
| ATTCTGCC | -0.197 |
| AATAGAAG | -0.0995 |
| CAGAGACC | -0.0259 |
| AAGTTCTG | -0.148 |
| TAGCAGGA | -0.14 |
| GGGCGAAA | -0.0509 |
| GGCCCTTA | 0.0678 |
| ACGTAATA | 0.079 |
| AGGGTTCC | 0.354 |
| CCGGCGAC | -0.391 |
| ACAATAAC | 0.299 |
| GCAACTCA | 0.114 |
| CTACCCAG | 0.0578 |
| TAGCCTGA | -0.0183 |
| CCGCATCC | -0.0138 |
| ACAAAAGG | 0.148 |
| CTGAAGCA | 0.0598 |
| ATTATAGA | 0.118 |
| CACTTAGG | 0.1 |
| CGGTTACG | 0.401 |
| CAGGGGAG | -0.0274 |
| CTCTTCGC | -0.169 |
| ACTTGCCA | -0.0189 |
| CTCATAGC | -0.266 |
| AGGGGGAT | -0.297 |

| Sequence | PBM E-score |
| --- | --- |
| GAATTTTA | 0.0203 |
| ATGTGAGG | 0.0181 |
| ACTAGAAC | -0.0498 |
| ATTTATTC | 0.0832 |
| GGTACATA | 0.146 |
| GATCGATA | 0.0251 |
| CCACAGAA | 0.0259 |
| GAAAACGC | -0.107 |
| ATTGGGTA | 0.156 |
| AATCGCAC | -0.223 |
| AACACGAT | -0.159 |
| CTCGATGC | -0.0897 |
| GGCTACTA | 0.0837 |
| ACGATCAT | 0.165 |
| GGTACGAC | -0.0556 |
| CATCCCAA | 0.0674 |
| CAGACAGA | -0.0796 |
| GCCGAGAC | -0.12 |
| GCACTCCA | -0.173 |
| ACTTTCAG | -0.0214 |
| CACTCCGC | -0.143 |
| CATATCTC | -0.225 |
| AAGTACGT | 0.0315 |
| CGGGATCA | -0.0134 |
| ATCGCTTG | -0.0906 |

| Sequence | PBM E-score |
| --- | --- |
| AGCCCAAT | -0.0124 |
| AGGCAATC | -0.244 |
| CCTTTGTA | 0.178 |
| CCACTGGG | 0.0233 |
| ACTTTTCA | 0.0745 |
| ACGAATGC | -0.107 |
| GTCGGCAC | -0.131 |
| AAAATAAC | 0.21 |
| AGCACACG | -0.146 |
| CACGTGAA | -0.108 |
| TATGGAAA | 0.149 |
| CGCCGAAA | -0.0232 |
| CGGACATC | -0.0493 |
| ATATGGCG | -0.174 |
| AGTGGATC | -0.0804 |
| GGTCAAGA | 0.242 |
| CGCGGACC | 0.127 |
| CAGGATCA | -0.0306 |
| CCTACTAG | 0.0753 |
| CAGGGTAA | 0.354 |
| CACGAACC | 0.129 |
| AACATGAT | 0.155 |
| TAATCCTA | -0.0514 |
| AAGCGATC | -0.176 |
| AAACACAC | 0.202 |

| Sequence | PBM E-score |
| --- | --- |
| ACCTACAT | 0.108 |
| GGGGCTAC | 0.0181 |
| GGATAGAC | -0.192 |
| ACGGTACT | 0.0886 |
| CGCAAGAG | 0.0283 |
| GGGTTAGA | 0.284 |
| GATAGGAC | -0.166 |
| CATCAACG | -0.116 |
| ACATCACT | -0.113 |
| ACGACATG | -0.0709 |
| TGGTACCA | 0.357 |
| CAGCAATC | -0.206 |
| CTATTCAC | 0.059 |
| AAAACCCG | 0.131 |
| AAGAGTGT | -0.01 |
| CAAGAAGA | 0.0777 |
| CAAAAACC | 0.302 |
| GCATTACA | -0.086 |
| GCTGGGGA | -0.0703 |
| CTCGCACA | -0.00714 |
| CTGACAGC | -0.101 |
| CCAAAGTC | 0.0188 |
| GGCTGGAA | -0.121 |
| ATGTGTCC | 0.0846 |
| CGTTTTGC | -0.0673 |

| Sequence | PBM E-score |
| --- | --- |
| AACTAAGT | 0.0654 |
| CCTTCACG | 0.113 |
| CCCTGCAG | 0.178 |
| CGTGAGAG | -0.254 |
| GGCCAAGA | -0.263 |
| AAGAGGCC | -0.122 |
| AGCGCCCT | -0.212 |
| GTTCGTGA | 0.0541 |
| CAAAGTGG | -0.13 |
| AGTACGTA | -0.12 |
| GGTAGACC | 0.122 |
| GACCGACC | 0.0331 |
| GTGACCGA | 0.0488 |
| ACGAAGCG | -0.155 |
| CAGGTCCA | 0.0524 |
| CTTGCGCC | -0.165 |
| CACCACTG | -0.0127 |
| ATCGACGA | -0.113 |
| CCGACTAC | -0.0291 |
| CTAGTGAA | 0.103 |
| ACCCAAAC | 0.312 |
| CCAGGGAC | -0.163 |
